How the values were obtained:
Settings in all cases: hybridoma supernatants; 30 nM soluble receptor
[1] = target: T1, soluble hetero-EPOR (EPOR-CD131-Fc) (Homo sapiens, UniProt P19235+P32927); test: Bio-layer interferometry (Octet) binding of hybridoma antibodies to EPOR-CD131-Fc
T1 construct: Chimeric Fc fusion proteins of the extracellular domains of human EPOR and human CD131; purchased Sino Biological CT010-H02H
T1 sequence (P19235 25-250 limits assumed): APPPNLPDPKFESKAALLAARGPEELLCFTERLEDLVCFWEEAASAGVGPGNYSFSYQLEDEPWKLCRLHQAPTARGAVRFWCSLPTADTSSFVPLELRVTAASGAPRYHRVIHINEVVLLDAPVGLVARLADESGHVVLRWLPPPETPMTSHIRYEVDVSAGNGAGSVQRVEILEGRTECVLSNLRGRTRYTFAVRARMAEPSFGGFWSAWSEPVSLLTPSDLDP
T1 sequence (P32927 17-443 limits assumed): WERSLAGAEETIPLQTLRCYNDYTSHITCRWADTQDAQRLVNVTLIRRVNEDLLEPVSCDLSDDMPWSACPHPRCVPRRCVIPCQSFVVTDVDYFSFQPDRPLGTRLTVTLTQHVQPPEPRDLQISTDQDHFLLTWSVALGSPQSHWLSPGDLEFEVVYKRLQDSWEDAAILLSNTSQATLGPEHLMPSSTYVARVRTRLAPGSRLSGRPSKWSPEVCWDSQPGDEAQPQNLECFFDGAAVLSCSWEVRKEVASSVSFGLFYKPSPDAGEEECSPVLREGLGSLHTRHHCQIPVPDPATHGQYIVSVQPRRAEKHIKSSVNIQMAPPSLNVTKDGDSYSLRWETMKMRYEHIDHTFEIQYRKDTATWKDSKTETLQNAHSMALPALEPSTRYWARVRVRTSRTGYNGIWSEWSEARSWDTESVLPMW
Excerpt: (§1) The B cells from ATX-GK mice were fused with mouse myeloma cells to generate hybridoma. The hybridoma cells were screened twice. In the first screening, 293 cells expressing human EPOR, human CD131, or both were used as the primary screen. 87 hybridoma antibodies have been isolated by positive staining on 293T cells expressing human EPOR (hEPOR), human CD131 (hCD131), or both, with the hybridoma supernatants (Table 11 and FIG. 17). Expression of EPOR and CD131 was confirmed by flow cytometry with Phycoerythrin (PE)-labeled anti-EPOR (R&D Systems, Cat #FAB307P) and Alexa Fluor® 647 (AF647)-labeled anti-CD131 (BD Biosciences, Cat #564191), respectively (FIG. 28B). All hybridoma clones were purified and sequenced. Binding kinetics with soluble hetero-EPOR (EPOR-CD131-Fc), soluble EPO receptor subunit of hetero-EPOR (EPOR-Fc), and soluble CD131 subunit of hetero-EPOR (CD131-Fc) were measured using bio-layer interferometry (Octet®) by capturing the hybridoma antibodies in the supernatants on biosensors coated with anti-mouse Fc first and dipping the biosensors into the solutions containing 30 nM of the soluble receptor Fc fusion proteins. The supernatants were also used to block the interaction between EPO and EPOR. The soluble EPOR-CD131-Fc was first captured on biosensors coated with anti-human Fc and then dipped into 10 nM of EPO with or without the hybridoma supernatants. […]

EPOR-Fc = target: T2, EPOR-Fc (Homo sapiens, UniProt P19235); test: Bio-layer interferometry (Octet) binding of hybridoma antibodies to EPOR-Fc
T2 construct: The extracellular domains of EPOR or CD131 are produced as soluble Fc fusion proteins; purchased Sino Biological 10707-H02H
T2 sequence (P19235 25-250 limits assumed): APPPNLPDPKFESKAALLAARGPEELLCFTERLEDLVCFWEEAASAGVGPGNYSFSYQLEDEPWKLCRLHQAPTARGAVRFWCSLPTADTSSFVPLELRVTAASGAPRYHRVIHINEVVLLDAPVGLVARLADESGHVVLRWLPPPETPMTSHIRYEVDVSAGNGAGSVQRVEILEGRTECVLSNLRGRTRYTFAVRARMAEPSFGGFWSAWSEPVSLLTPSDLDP
Excerpt: as §1

CD131-Fc = target: T3, CD131-Fc (Homo sapiens, UniProt P32927); test: Bio-layer interferometry (Octet) binding of hybridoma antibodies to CD131-Fc
T3 construct: The extracellular domains of EPOR or CD131 are produced as soluble Fc fusion proteins; made in house
T3 sequence (P32927 17-443 limits assumed): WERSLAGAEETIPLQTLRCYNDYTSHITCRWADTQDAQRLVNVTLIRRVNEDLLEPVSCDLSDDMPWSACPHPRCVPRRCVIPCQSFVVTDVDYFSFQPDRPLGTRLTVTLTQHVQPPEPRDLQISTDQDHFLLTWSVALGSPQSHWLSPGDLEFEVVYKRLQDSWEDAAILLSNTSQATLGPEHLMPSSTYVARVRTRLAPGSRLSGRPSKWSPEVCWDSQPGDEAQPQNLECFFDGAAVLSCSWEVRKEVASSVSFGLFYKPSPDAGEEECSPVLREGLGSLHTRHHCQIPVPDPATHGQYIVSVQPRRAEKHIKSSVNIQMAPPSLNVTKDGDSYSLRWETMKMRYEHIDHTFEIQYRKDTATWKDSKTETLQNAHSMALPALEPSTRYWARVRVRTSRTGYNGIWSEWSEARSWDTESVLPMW
Excerpt: as §1

B1: EPORab - M26: hybridoma antibody clone, VH/VK in Table 10 (antibody, V domains shown)
VH: QVQLVQSGVEVKKPGASVKVSCKASGYAFSNNDISWVRQAPGQGLEWMAWITTSNGNTNYAPKLQGRVTMTTDTSTSTAYMELRSLKSDDTAVYYCARGGRTGYFDYWGQGTLVTVSS
VL: [left out - about 100 residues]QIPLTFGGGTKVEIR
high affinity: binding to EPOR-CD131-Fc [1] | binding to EPOR-Fc (EPOR-Fc) | binding to CD131-Fc (CD131-Fc)

From patent US12637513B2, “Method of treating cancer by administering an inhibitor of erythropoietin receptor activity comprising either erythropoietin receptor or erythropoietin protein” (ImmunEdge, Inc., priority 2022, dated 2026)
